# Measurements as given in PubChem BioAssay AID2675 (National Center for Advancing Translational Sciences (NCATS), 2010).
# The whole screen tested about 280,000 compounds, of which about 100 (0.036%) were called active. This list was built around the results that the source calls inconclusive (neither active nor inactive); the mix of calls is not that of the screen. Calls come from the whole dose curve; as a rule, active = well fitted inhibition curve with a large enough effect in the signal ratio, with a control signal flat (not every such curve was filed as active); inconclusive = small, poorly fitted or top-dose-only effect, or effect the other way, or a change in a side signal; inactive = no such curve, though single readings can be large or run the other way; the % refers to the signal ratio. Where the call is inconclusive, the potency comes from a doubtful curve fit. “Side channel” marks fits to a control or component signal instead of the main read-out.
# Biological target: Muscleblind-like protein 1 (Homo sapiens) (UniProt Q9NR56)
# UniProt Q9NR56, sequence (Q9NR56 whole entry, looked up): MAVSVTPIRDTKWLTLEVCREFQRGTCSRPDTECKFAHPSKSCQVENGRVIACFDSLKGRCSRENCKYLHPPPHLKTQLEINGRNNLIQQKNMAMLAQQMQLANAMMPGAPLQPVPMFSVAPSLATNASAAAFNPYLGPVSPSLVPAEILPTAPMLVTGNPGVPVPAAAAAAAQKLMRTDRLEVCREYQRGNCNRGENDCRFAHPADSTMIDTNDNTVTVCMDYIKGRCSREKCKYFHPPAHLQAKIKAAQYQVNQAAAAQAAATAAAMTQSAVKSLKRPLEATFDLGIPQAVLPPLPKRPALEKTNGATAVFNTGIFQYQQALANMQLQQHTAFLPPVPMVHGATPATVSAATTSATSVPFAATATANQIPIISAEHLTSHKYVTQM
# Experiment: qHTS Assay for Inhibitors of MBNL1-poly(CUG) RNA binding
# Conditions: TR-FRET MBNL1-His/biotin-(CUG)12 binding, 665/545 ratio; series mostly up to 57.5 µM
# In short: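 Inhibition of protein-RNA binding appears as loss of TR-FRET between terbium anti-His antibody on MBNL1-His and streptavidin-XL665 on biotin-(CUG)12. Activity is normalized to buffer-only and uninhibited-complex controls.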
# Potency is the fitted concentration of half-maximal effect; tags give direction and shape of the fitted curve or compound fluorescence and quenching.
row,Compound,Potency
1,CC(C)C(NC(=O)c1ccccc1)C(=O)N/N=C\c1ccco1 (stereo not drawn),"inconclusive: 28.2 µM [quencher, side channel, partial curve, poor fit]"
2,CCOc1ccc(N2C(=O)CC(C(C)c3ccccc3)C2=O)cc1 (stereo not drawn),inactive
3,CC1=NN(C(=O)c2c(Br)cnn2C)C(O)(C(F)(F)F)C1 (stereo not drawn),inactive
4,COc1cc([N+](=O)[O-])ccc1-c1ccc(/C=N/NC(=O)OC(C)(C)C)o1,"inconclusive: 25.1 µM [quencher, side channel, single point]"
5,COC(=O)c1c(NC(=O)C2(C)Cc3ccccc3C(=O)O2)sc2c1CCCC2 (stereo not drawn),inactive
6,CC(C)(C)n1nnnc1C(c1ccc(Cl)cc1)N1CCSCC1 (stereo not drawn),"inconclusive: 39.8 µM [quencher, side channel, single point]"
7,CC(C)NC(=O)c1ccccc1NC(=O)/C=C/c1cccc([N+](=O)[O-])c1,"inconclusive: 3.16 µM [quencher, side channel, single point]"
8,O=C(CSc1ncnc2c1oc1ccccc12)Nc1ccccc1C(F)(F)F,"inconclusive: 6.31 µM [fluorescent, side channel, single point]"
9,CCN(CC)c1c([N+](=O)[O-])c(=O)n(C)c2ccccc12,"inconclusive: 39.8 µM [quencher, side channel, single point]"
10,COc1ccccc1C(=O)Nc1ccnn1C1CCN(C/C=C/c2ccc(F)cc2)CC1,inactive
11,C=CCN1C(=O)/C(=C2/Sc3ccccc3N2CCCS(=O)(=O)O)SC1=S,"inconclusive: 15.8 µM [quencher, side channel, partial curve]"
12,O=C(c1cc(N2CCOCC2)c(F)cc1[N+](=O)[O-])N1CCOCC1,"inconclusive: 28.2 µM [quencher, single point]"
13,O=C(C(c1ccccc1)c1ccccc1)N1CCN(CCN2C(=O)c3cccc4cccc(c34)C2=O)CC1,"inconclusive: 3.16 µM [quencher, side channel, single point]"
14,COc1ccc([N+](=O)[O-])cc1N(CC(=O)N1CCCC1)S(C)(=O)=O,"inconclusive: 20 µM [quencher, side channel, partial curve]"
15,O=C1NCCN/C1=C\C(=O)c1cccc(Br)c1,"inconclusive: 17.8 µM [quencher, side channel, partial curve]"
16,COc1cc(C(=O)N2CCCc3ccccc32)c([N+](=O)[O-])cc1OC,"inconclusive: 31.6 µM [quencher, side channel, single point]"
17,O=C(/C=C/c1ccco1)NC(=S)Nc1nc(-c2ccc3ccccc3c2)cs1,inactive
18,COc1ccc(C2C(C#N)=C(N)Oc3cc(C)n(Cc4ccncc4)c(=O)c32)cc1 (stereo not drawn),"inconclusive: 31.6 µM [quencher, side channel, single point]"
19,CCCCNC(=S)N(Cc1c(C)noc1C)c1ccccc1,"inconclusive: 25.1 µM [fluorescent, side channel, single point]"

row,Compound,Potency
1,O=C(CNC(=O)c1ccc(F)cc1)N/N=C/c1ccc(O)c([N+](=O)[O-])c1,"inconclusive: 15.8 µM [activator, single point]"
2,COC(=O)Cn1ccc(-c2ccc(Cl)cc2)c(C#N)c1=O,"inconclusive: 14.1 µM [quencher, side channel, partial curve]"
3,CC(NC(=O)c1ccccc1)C(=O)N/N=C/c1ccccc1 (stereo not drawn),"inconclusive: 5.01 µM [fluorescent, side channel, single point]"
4,CSc1nnc2ccc(-c3ccc(C)cc3)nn12,"inconclusive: 7.08 µM [quencher, side channel, partial curve]"
5,COc1cc2c3nnc(-c4ccc(F)cc4)c-3cn(Cc3ccc(C)cc3)c2cc1OC,inactive
6,O=C(C[n+]1cccc(C(=O)Nc2ccccc2)c1)c1ccc([N+](=O)[O-])cc1,"inconclusive: 31.6 µM [quencher, side channel, partial curve]"
7,NC(=O)NNC(=S)Nc1cccc2ccccc12,inactive
8,COc1ccc(Oc2nc(-c3ccccc3)ncc2S(=O)(=O)c2ccccc2)cc1,"inconclusive: 8.91 µM [quencher, side channel, single point]"
9,O=C(NCC1COc2ccccc2O1)C1CCN(S(=O)(=O)c2cccc3nsnc23)CC1 (stereo not drawn),"inconclusive: 3.55 µM [quencher, side channel, full curve]"
10,CNC(=S)NCCN1CCOCC1,inactive
11,O=C(NCCc1ccc2c(c1)OCCO2)c1ccc([N+](=O)[O-])cc1Cl,"inconclusive: 28.2 µM [quencher, side channel, partial curve]"
12,NS(=O)(=O)c1ccc(N/N=C/c2ccc(C(=O)O)cc2)c([N+](=O)[O-])c1,"inconclusive: 7.94 µM [quencher, side channel, partial curve]"
13,Cc1ccc2c(c1)sc(-c1ccc(N(C)C)cc1)[n+]2C,"inconclusive: 11.2 µM [quencher, side channel, partial curve]"
14,COc1cc2nc(SCc3ccc(C(F)(F)F)cc3)n(Cc3cccs3)c(=N)c2cc1OC,"inconclusive: 39.8 µM [fluorescent, side channel, single point]"
15,O=C(c1cc(O)c(O)c([N+](=O)[O-])c1)c1ccccc1F,"inconclusive: 22.4 µM [quencher, side channel, single point]"
16,COc1ccc(NC(=O)Nc2nnc(Cc3ccc(F)cc3)s2)cc1,inactive
17,O=S(=O)(N1CCCCCC1)N1CCN(S(=O)(=O)N2CCOCC2)CC1,"inconclusive: 1.58 µM [quencher, side channel, full curve, poor fit]"
18,O=[N+]([O-])c1ccc(N2CCCCCC2)c(S(=O)(=O)N2CCCCC2)c1,"inconclusive: 10 µM [quencher, side channel, partial curve]"
19,CCn1ncc(CNC(=O)CCCSc2nc(-c3ccco3)cc(C(F)(F)F)n2)c1C,"inconclusive: 0.501 µM [quencher, side channel, full curve, poor fit]"
